Publication PMC4336329 (PLoS ONE, 2015)
The whole screen tested about 310,000 compounds, of which about 14,000 (4.5%) showed an effect of 50% or more. The effect is printed as a negative number. The list shows a part of the results.

Target: human ether-à-go-go-related gene (hERG) potassium channel (human, UniProt Q12809)
Assay: primary screen, population patch clamp on CHO cells stably expressing hERG
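Further: peak tail current of the secondary pulse compared with the same well before compound.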

human ether-à-go-go-related gene (hERG) potassium channel, sequence (Q12809 whole entry, looked up): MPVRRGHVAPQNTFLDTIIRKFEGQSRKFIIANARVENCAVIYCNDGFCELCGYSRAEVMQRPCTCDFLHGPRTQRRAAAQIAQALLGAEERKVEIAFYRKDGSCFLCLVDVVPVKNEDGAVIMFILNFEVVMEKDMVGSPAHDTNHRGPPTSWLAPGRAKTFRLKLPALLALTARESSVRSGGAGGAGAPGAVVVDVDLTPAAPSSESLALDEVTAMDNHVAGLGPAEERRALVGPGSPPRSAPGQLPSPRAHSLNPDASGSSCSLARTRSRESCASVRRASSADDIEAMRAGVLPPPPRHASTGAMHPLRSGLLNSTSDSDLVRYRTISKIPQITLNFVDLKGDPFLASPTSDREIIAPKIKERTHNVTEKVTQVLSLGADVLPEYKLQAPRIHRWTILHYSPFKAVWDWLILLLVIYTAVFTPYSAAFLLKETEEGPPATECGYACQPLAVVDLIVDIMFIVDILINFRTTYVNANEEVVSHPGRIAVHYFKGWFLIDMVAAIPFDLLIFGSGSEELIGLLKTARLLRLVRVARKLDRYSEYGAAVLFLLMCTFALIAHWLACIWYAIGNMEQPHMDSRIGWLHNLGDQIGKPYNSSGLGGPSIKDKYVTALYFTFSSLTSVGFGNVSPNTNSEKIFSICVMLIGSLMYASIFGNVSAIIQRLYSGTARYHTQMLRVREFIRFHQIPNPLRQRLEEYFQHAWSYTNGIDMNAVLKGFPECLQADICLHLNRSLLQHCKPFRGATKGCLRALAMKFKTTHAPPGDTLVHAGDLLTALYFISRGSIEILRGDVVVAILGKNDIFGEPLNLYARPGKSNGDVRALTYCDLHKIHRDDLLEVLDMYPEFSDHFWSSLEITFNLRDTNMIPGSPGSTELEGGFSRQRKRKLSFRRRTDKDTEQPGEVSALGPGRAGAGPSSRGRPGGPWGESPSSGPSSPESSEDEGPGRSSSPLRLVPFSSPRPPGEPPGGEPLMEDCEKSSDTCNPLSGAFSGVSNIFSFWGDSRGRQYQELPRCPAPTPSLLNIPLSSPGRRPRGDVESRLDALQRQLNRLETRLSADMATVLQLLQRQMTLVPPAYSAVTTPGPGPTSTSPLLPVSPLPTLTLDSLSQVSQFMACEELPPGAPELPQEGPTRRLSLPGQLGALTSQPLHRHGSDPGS

Compound | hERG current change (%, negative = inhibition) at 10uM
Cc1cc(C)c(NS(=O)(=O)c2cccc3cccnc23)c(C)c1 | -2.75%
Cc1cc(S(=O)(=O)ON2C(=O)c3ccccc3C2=O)ccc1F | 15.7%
CNC(=O)c1ccccc1NC(=O)c1c(O)c2c([nH]c1=O)CCCC2 | -5.31%
Cc1ccc(C(C)(O)CS(=O)(=O)Cc2ccccc2Cl)cc1 (centres unmarked) | 11.2%
CC1CCCCN1S(=O)(=O)c1ccc(NC(=O)c2cccc(-n3cnnn3)c2)cc1 (centres unmarked) | -18.4%
O=C(c1cc2c(s1)-c1ccccc1OC2)N1CCN(c2ccccc2)CC1 | 8.08%
Cc1ccc(C(=O)NCC(=O)OC(C)C(=O)Nc2ccc(N3CCOCC3)cc2)s1 (centres unmarked) | -5.66%
CCCCNC(=O)N1CCN(c2ccccc2OCC)CC1 | -0.115%
CC(C)=CCCC1=CCC2C(=O)NNC(=O)C2C1 (centres unmarked) | 9.53%
COC(=O)c1nn(C23CC4CC(CC(C4)C2)C3)c2c1C(=O)N(c1ccc(F)cc1)C2=O | 2.61%
Cc1ccc(C)c(N(CC(=O)NC(C)(C)C)C(=O)CNC(=O)c2cccs2)c1 | 9.19%
Cc1ccc(NC(=O)c2c3c(nc4ccccc24)CCC3)cc1 | 2.86%
CC(C)(C)c1nc(SCC(=O)NCc2ccco2)c2ccccc2n1 | -15.7%
Cc1ccc(C)c(NC(=S)N(CCc2nc3cc(C)c(C)cc3[nH]2)Cc2cccnc2)c1 | 18%
CCN(CC)C(=O)CSc1nnc(-c2ccccn2)n1-c1ccccc1OC | 12.8%
N#Cc1cc(N)ccc1Sc1ccccc1 | 3.91%
Cc1ccc(-c2csc(NC(=O)CSc3nc4ccccc4c(=O)n3CCCN(C)C)n2)cc1 | -35.2%
c1ccc2[nH]c(NN=C3CCCCCC3)nc2c1 | -2.85%
O=C(Cc1ccc(F)cc1)N/N=C/c1ccccn1 | 3.81%
COc1ccc(NC(=O)NNC(=O)c2ccc(-c3ccccc3)cc2)c(OC)c1 | -8.29%
CC(C)(C)NC(=O)COC(=O)c1cc(Br)ccc1Cl | 24.3%
CCC1CCCCN1Cc1ccc(OC)c(OC)c1 (centres unmarked) | -33.1%

Compound | hERG current change (%, negative = inhibition) at 10uM
COc1ccc(S(=O)(=O)N2CCOCC2)cc1NC(=O)Cc1c(Cl)cccc1Cl | 17.4%
Cc1cc(NC(=O)COc2ccccc2C)ccc1NC(=O)c1cccs1 | 0.541%
Cc1cc(OC(=O)N2CCCCC2)cc(C)c1Cl | -18.4%
CCN(CC)c1ncnc2sc(C(=O)N3CCN(c4ccc(OC)cc4)CC3)c(C)c12 | -41.5%
CC(C)OCCCNC(=O)c1cn(C)c2ccc(S(=O)(=O)N(C)C3CCCCC3)cc2c1=O | -22%
O=C(NC(Cc1ccccc1)C(=O)O)NC12CC3CC(CC(C3)C1)C2 (centres unmarked) | 18.5%
CC(C)c1c(C(=O)N/N=C/c2ccc(Cl)cc2Cl)nnn1-c1nonc1N | 20.9%
NS(=O)(=O)c1ccc(CCNC(=O)C2CCC(Cn3c(=S)[nH]c4ccccc4c3=O)CC2)cc1 (centres unmarked) | 11.7%
COc1cc(CC(=O)OCC(=O)Nc2cccc([N+](=O)[O-])c2)cc(OC)c1OC | -35.7%
COc1ccccc1N1CCN(C(=O)c2cc(C)on2)CC1 | 6.46%
CCC1CCCCN1C(=O)c1ccc(OC2CCN(C(=O)C3CC3)CC2)cc1 (centres unmarked) | 18.3%
O=[N+]([O-])c1cc(S(=O)(=O)C(F)(F)F)ccc1Sc1nc2ccccc2s1 | 15.9%
COc1cc(C(=O)Nc2nc3ccccc3[nH]2)cc(OC)c1OC | -19.2%
CCc1cccc(C)c1NC(=O)C1CCN(c2nn3c(=O)cc(C)nc3s2)CC1 | 2.53%
Cc1nnc(SCC(=O)c2cc(C)n(-c3ccc4c(c3)OCO4)c2C)s1 | -2.46%
Cl.Clc1ccc(CSc2nnc([C@@H]3CCCN3)o2)cc1 | -3.36%
C=CCNC(=O)c1ccc(-c2nc(-c3ccc(Cl)c(Cl)c3)cs2)cc1 | -3.24%
CCOc1ccc(S(=O)(=O)N2CCOCC2)cc1NS(=O)(=O)c1ccc(OC)c([N+](=O)[O-])c1 | -41.7%
O=C(NCc1ccccc1)c1c(Cl)nc(Cl)c(Cl)c1Cl | 31.5%
CCOC(=O)c1cc(C#N)c(Nc2ccccc2OC)nc1C(F)(F)F | 14.4%
Cc1ccc(CC(=O)NCCc2ccc(S(N)(=O)=O)cc2)cc1 | 5.87%
O=C(OCc1cccc([N+](=O)[O-])c1)c1cnccn1 | -2.76%
